This data set deals with ATP. Kind of data set: switch fluorescence ratio, 500 uM ATP over buffer (Cy3 cluster intensity, sum of 5 cycles each) (fold (ratio)); higher = stronger signal-on switching upon ATP binding; sequences stand for … in TCGTCGGCAGCGTCAGATGTGTATAAGAGACAGTTTTTTTTTTTTTTTTTTTTTTTTT…TC. Particulars: aptamer strand: ATP DNA aptamer (quencher-CACCTGGGGGAGTATTGCGGAGGAAGG + anchor), 100 nM annealed; ATP concentration: 500 uM; one replicate. In short, it runs like this: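 Imaging in selection buffer was followed by imaging after 15 min with 500 uM ATP at 22 °C, for Cy3-labelled switching-strand clusters annealed to 100 nM quencher-labelled ATP aptamer on a modified Illumina MiSeq flow-cell. Five of these buffer/ATP cycles ran, separated by NaOH stripping and re-annealing. The fluorescence ratio per cluster is summed target-cycle over summed buffer-cycle Cy3 intensity, averaged per switch-domain sequence; clusters outside 100-1000 RFU were removed.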

From the supplement of paper PMC10126150 come the findings set out here.

Sequences with one replicate were seen in a single cluster, so their values are uncertain.
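Also: ATP exposure 15 min at 22 °C before imaging.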

As for GCGAAGTATG, the switch fluorescence ratio worked out at 0.964.

On to GACTCCATTC, for which the switch fluorescence ratio stood at 1.28.

Regarding CATGCGAGTA, the switch fluorescence ratio turned out to be 0.981.

Turning to TGAGTGAGAT, the switch fluorescence ratio worked out at 0.981.

TTCTTTTGGA: the switch fluorescence ratio worked out at 0.967.

As to ACCATCAGAA, the switch fluorescence ratio was found to be 1.03.

For CCAGGCCGGC, the switch fluorescence ratio came out at 1.03.

Take CGCTCTTGA: the switch fluorescence ratio was 0.99.

On to TGTCGGGAGC, for which the switch fluorescence ratio worked out at 1.

As for CATCCGCGCT, the switch fluorescence ratio was found to be 2.6.

Regarding CGATCGTCCA, the switch fluorescence ratio was determined as 1.01.

CGGATAACTC: the switch fluorescence ratio came to 1.11.

CCCACTGTTG: the switch fluorescence ratio stood at 1.33.

TGTTGTTGTG: the switch fluorescence ratio was found to be 1.01.

Consider ATGCCGGTCC, for which the switch fluorescence ratio was found to be 1.01.

Turning to ACTCCGAGAT, the switch fluorescence ratio was determined as 7.01.

Turning to CGCAGAGGA, the switch fluorescence ratio worked out at 1.03.

With ACTGGCGGGG, the switch fluorescence ratio worked out at 0.998.

Consider CGGCAGGGAG, for which the switch fluorescence ratio is 1.06.

Regarding ATAGCCTAGT, the switch fluorescence ratio was found to be 0.982.

With CTCTCAACAT, the switch fluorescence ratio amounted to 1.07.

On to CGCTGAGTAA, for which the switch fluorescence ratio was determined as 1.08.

Turning to ACAGTAGGGG, the switch fluorescence ratio turned out to be 1.03.

With ACTTGTATCA, the switch fluorescence ratio is 0.973.

For GAACGGAAG, the switch fluorescence ratio was 1.01.

In the case of ATCAGGAACT, the switch fluorescence ratio stood at 1.03.

With TATTCAGTTC, the switch fluorescence ratio stood at 0.992.

TATAGAATAG: the switch fluorescence ratio is 1.04.

On to TGTGTAGTCT, for which the switch fluorescence ratio amounted to 1.05.

For CGAGAGGCTC, the switch fluorescence ratio stood at 0.978.

ATCGGGACGC: the switch fluorescence ratio was 0.918.

Turning to AAGGGACGAA, the switch fluorescence ratio is 1.

With TTTAAACCTA, the switch fluorescence ratio was determined as 1.03.

In the case of CCTGAGCCGG, the switch fluorescence ratio worked out at 1.02.

With AGCTTGTGCT, the switch fluorescence ratio is 1.02.

Take AAAATTATG: the switch fluorescence ratio was 0.986.

Consider ATTTGACTAG, for which the switch fluorescence ratio was determined as 0.983.

CTGAGTATTT: the switch fluorescence ratio amounted to 0.984.

Turning to GCCCGGGCGG, the switch fluorescence ratio was found to be 0.961.

With CCAAACAGGG, the switch fluorescence ratio is 1.

For GGGTTCCGAG, the switch fluorescence ratio was 1.06.

With CACAGGGGTG, the switch fluorescence ratio came to 1.23.

Regarding CTGGGATAAG, the switch fluorescence ratio was found to be 1.

For the sequence CTTATATAAC, the switch fluorescence ratio came to 1.

For TGAAACCGCG, the switch fluorescence ratio turned out to be 1.52.

With CCACGCTGTT, the switch fluorescence ratio turned out to be 1.16.

Take TTAGGGATTA: the switch fluorescence ratio was 1.02.

As for GGGTGCTGTC, the switch fluorescence ratio is 0.989.

As for CCCGACCCGT, the switch fluorescence ratio was found to be 1.09.

AGCGGGTTGT: the switch fluorescence ratio was determined as 0.987.

CGAATCGGAA: the switch fluorescence ratio is 1.04.

As for ATTCCTCGGG, the switch fluorescence ratio is 1.15.

Take CATCGTGGCC: the switch fluorescence ratio is 1.

As to TTGATGTG, the switch fluorescence ratio was 0.97.

CCTCGTGCTT: the switch fluorescence ratio was found to be 2.09.

TGAAACGAGC: the switch fluorescence ratio was found to be 1.02.

For TTGAAGCGCT, the switch fluorescence ratio worked out at 1.77.

Regarding ACTCTGGTGA, the switch fluorescence ratio was found to be 1.11.

Regarding AAAAAGACGC, the switch fluorescence ratio worked out at 1.

As to GTAGCCGATG, the switch fluorescence ratio is 1.

Regarding ACATGTATTC, the switch fluorescence ratio amounted to 1.02.

Consider TAACTTTGTG, for which the switch fluorescence ratio turned out to be 1.01.

Take TGGGCTTAAA: the switch fluorescence ratio was determined as 0.988.

As for AGCGGACCCT, the switch fluorescence ratio was found to be 1.01.

Take TCCAGGTTAA: the switch fluorescence ratio was 1.06.

Consider GGACGAGTGC, for which the switch fluorescence ratio worked out at 1.02.

As for CTCGGCAAAA, the switch fluorescence ratio was 3.96.

Take CGATCTATT: the switch fluorescence ratio amounted to 1.

Take AGTATAAGAT: the switch fluorescence ratio was determined as 0.966.

In the case of GGACGACAGG, the switch fluorescence ratio amounted to 1.07.

As for ACGCAAAGCT, the switch fluorescence ratio is 2.47.

As to ATGTGGTCAA, the switch fluorescence ratio was 0.953.

Regarding TCCAAGTTCG, the switch fluorescence ratio worked out at 1.02.

Regarding GCTAGATCAA, the switch fluorescence ratio was 0.977.

For CGTCCCGCGG, the switch fluorescence ratio was found to be 1.21.

TTGAGTGCCT: the switch fluorescence ratio worked out at 1.07.

Regarding TGGTCGCGTC, the switch fluorescence ratio amounted to 1.01.

As to AGTAAGTAG, the switch fluorescence ratio was 1.02.
